About 2,200 (0.71%) of roughly 310,000 compounds showed an effect of 50% or more. The effect is printed as a negative number. This is one part of the list.
What follows are molecules tested against human ether-à-go-go-related gene (hERG) potassium channel (human, UniProt Q12809) (assay: primary screen, population patch clamp on CHO cells stably expressing hERG).
human ether-à-go-go-related gene (hERG) potassium channel, sequence (Q12809 whole entry, looked up): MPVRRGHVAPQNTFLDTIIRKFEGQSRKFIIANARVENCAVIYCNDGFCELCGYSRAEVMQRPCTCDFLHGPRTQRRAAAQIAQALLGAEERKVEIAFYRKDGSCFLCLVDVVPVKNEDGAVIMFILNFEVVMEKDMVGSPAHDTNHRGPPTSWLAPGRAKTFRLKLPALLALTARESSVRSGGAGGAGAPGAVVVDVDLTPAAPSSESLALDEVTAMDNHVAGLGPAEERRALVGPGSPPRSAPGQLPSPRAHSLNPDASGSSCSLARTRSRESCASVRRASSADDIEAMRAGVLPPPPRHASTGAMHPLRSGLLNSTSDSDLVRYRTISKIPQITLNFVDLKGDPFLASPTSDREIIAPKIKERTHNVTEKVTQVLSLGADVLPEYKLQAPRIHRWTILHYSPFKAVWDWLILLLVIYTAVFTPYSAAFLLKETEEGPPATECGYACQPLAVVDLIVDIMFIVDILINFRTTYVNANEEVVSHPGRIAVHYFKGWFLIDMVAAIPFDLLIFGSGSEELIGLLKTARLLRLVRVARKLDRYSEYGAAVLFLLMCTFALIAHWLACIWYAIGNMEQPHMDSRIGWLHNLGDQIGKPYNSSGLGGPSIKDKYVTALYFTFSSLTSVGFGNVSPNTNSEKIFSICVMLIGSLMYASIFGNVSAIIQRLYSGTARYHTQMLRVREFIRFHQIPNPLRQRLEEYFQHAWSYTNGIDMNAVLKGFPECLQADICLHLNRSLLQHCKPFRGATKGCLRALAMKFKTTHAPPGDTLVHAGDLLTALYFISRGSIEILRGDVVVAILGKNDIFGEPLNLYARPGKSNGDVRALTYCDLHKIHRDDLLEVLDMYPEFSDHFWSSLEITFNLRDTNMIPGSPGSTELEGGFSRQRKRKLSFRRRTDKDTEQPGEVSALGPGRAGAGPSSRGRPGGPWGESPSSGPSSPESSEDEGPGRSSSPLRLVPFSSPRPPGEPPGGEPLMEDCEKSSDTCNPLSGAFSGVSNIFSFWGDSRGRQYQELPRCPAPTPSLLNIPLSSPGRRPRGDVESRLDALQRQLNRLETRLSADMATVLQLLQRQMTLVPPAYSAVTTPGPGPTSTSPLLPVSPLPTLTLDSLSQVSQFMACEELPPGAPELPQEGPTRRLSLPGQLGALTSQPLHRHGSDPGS

Structure (SMILES)	hERG current change (%, negative = inhibition) at 1uM [%]
COc1cccc(/C=N/NC(=O)c2cccc([N+](=O)[O-])c2)c1OS(=O)(=O)c1ccccc1	-3.73
CCOC(=O)C1CN(S(=O)(=O)c2ccc(Cl)cc2)c2cc(S(=O)(=O)CC)ccc2O1 (stereo not shown)	-1.55
COc1ccc(-c2nc(-c3cccs3)no2)cc1	12.4
O=C(CCCCCn1c(=S)[nH]c2ccc(N3CCOCC3)cc2c1=O)NCCc1ccccc1	9.01
COc1cc(C2NC(=O)CCC2[N+](=O)[O-])cc(OC)c1OC (stereo not shown)	13.9
CC(=O)Nc1cccc(-c2nc3ccccc3[nH]2)c1	7.47
CCOc1cc(CN2CCN(C(=O)c3ccco3)CC2)ccc1OC	-5.41
Clc1ccc(CSc2nnc(CNc3cccc(Cl)c3)o2)cc1	6.04
Cc1ccc(-n2c(C)cc(=O)cc2C)c(C)c1	1.73
COC(=O)C1C(=O)NCC1c1ccc(C)cc1 (stereo not shown)	11.9
CSCCC(NC(=O)COc1ccccc1)C(=O)NCc1cccs1 (stereo not shown)	-4.12
Cc1cc(C)cc(OCC(=O)OCCN2C(=O)c3ccccc3C2=O)c1	-1.93
NC(=O)c1ccc(NC(=O)COC(=O)CCSc2ccccc2)cc1	13.9
O=C(COC(=O)c1ccc(F)cc1)Nc1ccc(Cl)cn1	3.55
COCCN(C(=S)Nc1ccc(OC)cc1)C(C)c1cccs1 (stereo not shown)	7.62
Cc1ccc(NC(=O)CSc2nnc(-c3ccccc3C)o2)cc1C	7.96
CCOc1ccc(OCC)c(NC(=O)CSCCc2ccccn2)c1	6.04
COc1cc(/C=N/n2nnnc2N)ccc1OC(C)C	9.84
O=S(=O)(N/N=C/c1cccc(OC2CSC2)c1)c1ccccc1	1.46
O=C(Cc1cccs1)NCCCc1ccccc1	6.67
CC1=NN(c2ccc(C)cc2C)C(=O)C1C(c1cccc(O)c1)C1C(=O)N(c2ccc(C)cc2C)N=C1C (stereo not shown)	1.17
Cc1cccc(NC(=O)COc2ccc3oc4c(c3c2)CCCC4)n1	13.2
O=C(/C=C/c1ccc2c(c1)OCO2)Nc1cc(S(=O)(=O)N2CCOCC2)ccc1N1CCOCC1	-11.9

Structure (SMILES)	hERG current change (%, negative = inhibition) at 1uM [%]
C=CCNC(=O)CSc1nc2cc(C(=O)OCC)ccc2n1CC	13.7
O=C(C1=C[C@@H](C2CCCCC2)C[C@@H](OCCCCO)O1)N1CCOCC1	8.18
CCOC(=O)c1ccccc1NC(=O)CSc1nnc(COc2ccccc2)n1CC	-8.55
Cc1cccc(/C=N/n2c(-c3ccccn3)n[nH]c2=S)c1	14.4
Cc1c(C(=O)Nc2ccccc2C(=O)N2CCOCC2)cccc1[N+](=O)[O-]	6.85
CCCCNC(=O)N(C)c1nc2ccccc2s1	1.8
Cc1nn(-c2ccccc2)c(N)c1C1(O)C(=O)N(C)c2ccccc21 (stereo not shown)	15.7
O=C(NC1CCCCCCC1)C1CCC(CNc2c(N3CCCC3)c(=O)c2=O)CC1 (stereo not shown)	11.4
COc1cc(C(C[N+](=O)[O-])c2c(-c3ccccc3)cc3ccccn23)cc(OC)c1OC (stereo not shown)	13.5
Cc1cccc(OCc2nnc(SCC(=O)N(C(C)C)C(C)C)n2Cc2ccco2)c1C	-16
O=C(O)CSc1nnc(-c2ccc(Cl)cc2Cl)n1Cc1ccccc1	17.6
CC1CCN(CC(=O)Nc2nccs2)CC1	15.2
O=S(=O)(Nc1ncccc1O)c1ccc(Cl)cc1	-0.0709
O=C(Nc1ccc(Oc2ccccc2)cc1)C1CCN(c2c3c(nc4ncnn24)CCC3)CC1	-20.2
COc1cccc(C(=O)NC(Cc2ccccc2)c2ccc3c(c2)OCCCO3)c1 (stereo not shown)	5.61
Cc1cccc(CC(=O)Nc2c3c(nn2-c2cccc(Cl)c2)CS(=O)C3)c1 (stereo not shown)	1.55
CCCSC1=N/C(=C\c2ccsc2)C(=O)S1	-0.34
COc1ccc(OC)c(-c2csc(NC(=O)CSc3ccccc3)n2)c1	4.64
CCOCCCNC(=O)c1cn(C)c(=O)c2cc(OC)c(OC)cc12	9.51
O=c1ccc(=O)n2n1CC(O)C2	13.6
CCOC(=O)C1CCN(C(=O)c2ccc3c(c2)C(=O)N(c2ccccc2C)C3=O)CC1	1.29
Cc1cc(C)c2c(N)c(S(=O)c3ccc(C(C)(C)C)cc3)sc2n1 (stereo not shown)	12.8
CC(/C=N/n1c(-c2ccccc2)n[nH]c1=S)=C\c1ccco1	14.5

Structure (SMILES)	hERG current change (%, negative = inhibition) at 1uM [%]
Cc1cc(Cl)ccc1NC(=O)COC(=O)c1nc2nccc(C)n2n1	5.85
CCOC(=O)C1=C(C)OC(N)=C(C#N)C1c1cccs1 (stereo not shown)	12.9
COCCn1c(N)c(S(=O)(=O)c2cccs2)c2nc3ccccc3nc21	-2.64
COc1ccc(S(=O)(=O)NCCN2CCOCC2)c(C)c1C	5.93
O=C(O)[C@H](O)[C@@H](O)C(=O)O	10.4
CC(C)CNC(=O)NC(=O)COc1ccc(C=O)cc1	6.71
CCCCOc1ccc(C(=O)N/C(=C/C=C/c2ccccc2)C(=O)O)cc1	16.1
CC(=O)c1cccc(NC(=O)CSc2nc(N3CCCCC3)nc(N3CCCCC3)n2)c1	10.3
Cn1nc(C(C)(C)C)c([N+](=O)[O-])c1C(=O)N1CCOCC1	11.7
CCOc1ccc(NC(=O)CSc2nc3nc4c(cc3c(=O)n2CC)COC(C)(C)C4)cc1	11.1
CN(Cc1ccc(C#CCCO)cc1)CC1CCCN(CCc2ccc(Cl)cc2)C1 (stereo not shown)	4.81
Cc1onc(-c2ccccc2Cl)c1C(=O)N1CCN(Cc2ccc3c(c2)OCO3)CC1	2.38
CCN(CCO)Cc1csc2ccc(Br)cc12.Cl	2
CC(=O)Nc1cccc(NC(=O)CSc2nc(=O)n(Cc3ccncc3)c3c2CCC3)c1	-5.91
C=CCn1c(=O)c2ccccc2n2c(SCc3c(C(=O)OCC)oc4ccccc34)nnc12	-17.7
O=C(COc1ccc(Br)cc1)N1CCc2ccccc2C1	5.71
Cc1cccc(NC(=O)N2C3CCCC2CC(NC(=O)C2CC2)C3)c1 (stereo not shown)	9.69
Cc1ccc(-n2ncc3c2CCCC3NC(=O)CCCN2CCCCC2=O)cc1C (stereo not shown)	-3.27
N#CCc1ccc(Oc2ccc([N+](=O)[O-])cn2)cc1	7.23
CCOC(=O)c1nnn(-c2nonc2-n2cccc2)c1CN1CCOCC1	2.28
COc1ccc(C(=O)NC(=S)NCc2ccccc2)cc1OC	21.1
CCOc1ccc(NC(=O)C2(c3ccc(OC)c(OC)c3)CCCC2)cc1	3.68
CCCS(=O)(=O)N1CCCC(C(=O)N2CCN(c3ccccn3)CC2)C1 (stereo not shown)	5.85

Structure (SMILES)	hERG current change (%, negative = inhibition) at 1uM [%]
CCN(C(=S)Nc1ccc(C(C)=O)cc1)C1CCCCC1	7.64
CC1CCc2nn(CC(=O)Nc3ccc(F)cc3F)cc2C1 (stereo not shown)	0.897
C=CCn1nc([N+](=O)[O-])nc1Sc1cccc2cccnc12	11.9
CNC[C@H](CC1CCCCC1)NC[C@H](NCCC1CCCC1)[C@H](C)O	-6.24
COCc1c(C(=O)OCC(=O)NCCN2C(=O)CSC2=O)oc2ccccc12	13.4
O=C1C(Cc2ccc(O)cc2)NC(=S)N1C1CCCCC1 (stereo not shown)	9.87
CCOc1ccc(N(CC(=O)NCC2CCCO2)C(=O)CCC(=O)Nc2ccccn2)cc1 (stereo not shown)	-12.1
Cc1ccc(-n2c(C)cc(/C=N/Nc3ccc([N+](=O)[O-])cn3)c2C)cc1	2.54
COc1ccc(CC[n+]2cc(/N=C(\C)[O-])on2)cc1OC	-5.15
Cn1c(=O)n(CC(N)=O)c2ccccc21	1.25
CN1CCN(c2nc3c(c(=O)n(C)c(=O)n3C)n2Cc2ccc(F)cc2)CC1	12.1
CNCCc1c[nH]c2ccccc12	12.9
Cc1cccc(C(CC(=O)NCCc2ccccc2)c2ccccc2)c1O (stereo not shown)	0.996
CCOC(=O)C1=C(C)S/C(=C\N(C)C)C1=O	-1.37
Cc1ccc(NC(=O)COc2cccc(Oc3ccccc3)c2)cc1S(=O)(=O)N1CCOCC1	5.7
CCN(CC)C(=O)c1cccc(NC(=O)C2=COCCO2)c1	7.34
Cc1sc2ncnc(NCCN3CCOCC3)c2c1C.O=C(O)C(=O)O	9.44
CCn1nnc(-c2ccccc2NC(=O)c2cc(OC)cc(OC)c2)n1	13.5
CCOC(=O)N1CCN(C(=O)CCc2c(C)nc3nc(C)nn3c2C)CC1	0.258
Cc1ccc(C(=O)/C=C/NNC(=O)c2ccccc2O)cc1	4.9
O=C(Nc1cccc(NC(=O)c2cccs2)c1)c1cccnc1	11.3
COc1ccc(Cl)cc1NS(=O)(=O)c1cc(Br)cnc1N	13.1

Reference: publication PMC4336329 (PLoS ONE, 2015)
